About 60 (0.1%) of roughly 46,000 compounds were called active. Not shown: some 3% with an inconclusive outcome. Calls come from the whole dose curve; as a rule, active = well fitted inhibition curve with a large enough effect; inconclusive = small, poorly fitted or top-dose-only effect; inactive = no such curve, though single readings can be large or run the other way. This is one part of the list.
experiment: Primary qHTS assay for Inhibitors of ovarian cancer metastasis using an organotypic tumor microenvironment (TME) model.; note: nearly all actives have a fitted effect of over 65% in size;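 for activity change, negative = inhibition: plate controls were DMSO wells for no effect and tomatine positive control wells for full effect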; conditions: SKOV3ip1-GFP adhesion/invasion on 3D omental model, fluorescence; series mostly up to 45.8 µM; activity change, negative = inhibition: at the top concentration
How it was run: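 Primary human omental fibroblast/mesothelial 3D culture pre-formed 48 h. SKOV3ip1-GFP cells added with compounds (0.36-46 umol/L), incubated 2 h RT/16 h 37 C, fixed; GFP cells quantified at 488/509 nm.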

Activity change, negative = inhibition, inactive:
CCOC(=O)c1ccc(NC(=O)Cn2cc(C(=O)c3cccs3)c3ccccc32)cc1 1.42%
Cc1cccc(OC(=O)c2nc(SCc3ccccc3F)ncc2Cl)c1 -3.89%
CC(=O)CC(c1ccccc1)c1c(O)c2ccccc2oc1=O (stereo unspecified) 30.9%
O=C(NCC(c1ccc2c(c1)OCO2)N1CCOCC1)C(=O)Nc1ccc(Cl)cc1 (stereo unspecified) 2.75%
CCCN(CCC)CCCNC(=O)c1sc2nc3n(c(=O)c2c1C)CCC3 -0.214%
CCC1CCCCN1CCCNC(=O)c1sc2nc(C)cc(C)c2c1-n1cccc1 (stereo unspecified) -3.09%
CCc1cc2c(cc3c(=O)n(CC(=O)NC(C)C)nc(CC)n32)s1 9.77%
COc1ccc(CNC(=O)CSCc2ccc(C)cc2)c(OC)c1 -7.4%
COc1ccccc1NC(=O)c1cc2c(n(-c3ccc(C)cc3)c1=O)CC(C)(C)CC2=O 6.98%
COc1ccc(OC)c(NS(=O)(=O)c2ccc3c(c2)CCCN3C(=O)C2CCC2)c1 0.475%
O=C(Nc1ccc(F)cc1F)c1cc(CN2CCOCC2)on1 16.7%
COc1ccc(CNC(=O)C2=Cc3cccc(OC)c3OC2)cc1OC 0.672%
CCc1nn(CC(=O)NCCN(CC(C)C)CC(C)C)c(=O)c2cc3sc(C)cc3n12 16.4%
Cc1cccc(NC(=O)C(Cc2ccccc2)N2Cc3ccccc3C2=O)c1C (stereo unspecified) -6.04%
CCc1ccc(NC(=O)c2ccc(F)c(S(=O)(=O)N3CCc4ccccc4C3)c2)cc1 9.77%
COc1cc(Br)c(C2CC(=O)Nc3cc4c(cc32)OCCO4)cc1OC (stereo unspecified) -6.77%
Cc1ccc(S(=O)(=O)Nc2ccc3c(c2)CCCN3C(=O)c2cccs2)cc1C 0.984%
COc1cccc(C(c2sc3nc(-c4ccco4)nn3c2O)N2CCC3(CC2)OCCO3)c1 (stereo unspecified) -3.93%
COc1ccc(-c2ccc(=O)n(CC(=O)Nc3ccccc3C(F)(F)F)n2)cc1 3.55%
COc1ccc(-c2nc(CSc3nnc(C)n4c3cc3sccc34)c(C)o2)cc1 -11.5%
Cc1ccc(C2c3[nH]c4ccccc4c3CCN2C(=O)CSc2ccccc2)cc1 (stereo unspecified) -5.2%
CSc1cccc(NC(=O)C2CCCN(S(=O)(=O)c3ccc4c(c3)CCCN4C(C)=O)C2)c1 (stereo unspecified) 1.3%
c1coc(CNc2ncnc3nc[nH]c23)c1 4.94%
CCc1nn2c(=O)cc(COC(=O)c3ccccc3NC(=O)c3ccc(C(C)(C)C)cc3)nc2s1 12%
Cc1ccccc1OCC(=O)Nc1nnc(S(=O)(=O)N2CCCCCC2)s1 13.1%
CC(Oc1ccc(Br)cc1)C(=O)N(Cc1nc(-c2ccccc2)no1)C(C)C (stereo unspecified) 0.741%
Cc1ccc(-c2nnc(Nc3ccc(Br)cc3)c3ccccc23)cc1S(=O)(=O)N1CCCCC1 1.41%
O=C(Cn1cnc2c(nc3n2CCCCC3)c1=O)Nc1ccc(F)cc1 2.86%
CCCN(CCC)CCCNC(=O)Cn1cnc2onc(-c3ccc(F)cc3)c2c1=O -1.67%
COc1cccc(NC(=O)CSc2nc3ccc(NC(=O)c4ccco4)cc3s2)c1 -2.34%
O=C(CCCn1c(=O)[nH]c2ccccc2c1=O)NCc1ccccc1Cl -1.72%
Cc1cc(C)c2c(-n3cccc3)c(C(=O)NCCc3ccc(Cl)cc3)sc2n1 7.21%
CN(C(=O)c1nc(-c2cccc(F)c2)n2c1CCCCC2)c1ccccc1F 14.2%
CCC(=O)NC1CC(=O)N(c2ccc3c(c2)OCCO3)C1 (stereo unspecified) -9.67%
Cc1ccc2c(=O)cc(C(=O)Nc3c(C)n(C)n(-c4ccccc4)c3=O)oc2c1C 9.33%
COc1ccccc1NC(=O)Cn1c(=O)n(Cc2ccco2)c(=O)c2oc3ccccc3c21 3.55%
COc1cc(-c2cc(OC)c3c(C)oc(C)c3c(=O)c2)ccc1OC(=O)c1ccccc1C 2.8%
COC(=O)C(C)Sc1nnc2cc(C)c3cc(C)cc(C)c3n12 (stereo unspecified) 1.02%
O=C(c1ccc(F)c(F)c1Nc1ccc(I)cc1F)N1CC(O)([C@H]2CCCCN2)C1 -15.1%
COc1cc(C2c3c(-c4ccccc4O)n[nH]c3C(=O)N2Cc2ccncc2)ccc1O (stereo unspecified) -9.11%
COc1c(C)c2c(c(O)c1CC=C(C)CCC(=O)OCCN1CCOCC1)C(=O)OC2 -26.1%
CCCOc1ccc(NC(=O)CC2C(=O)N(c3ccccc3)C(=O)N2CCC(C)C)cc1 (stereo unspecified) -14.6%
CC(C)c1ccc(NC(=O)CCCc2nc(-c3ccc(Cl)cc3)no2)cc1 -0.367%
COc1cc(Cl)c(NC(=O)C2CCN(S(=O)(=O)c3c(C)noc3/C=C/c3ccccc3F)CC2)c(OC)c1 -9.27%
CCc1ccc(NC(=O)CSc2ccc3nnc(CCNS(=O)(=O)c4ccc(OC)cc4)n3n2)cc1 5.91%
COc1cccc(CNC(=O)CC(c2ccc(F)cc2)N2Cc3ccccc3C2=O)c1 (stereo unspecified) -3.01%
Cc1ccccc1NC(=O)c1ccccc1NC(=O)c1ccccc1Cl -2.24%
Cc1ccc(-c2cn3c(n2)sc2cc(C(=O)NCCCc4ccccc4)ccc23)cc1 5.97%
CCOC(=O)c1cc(-c2ccc(C)cc2)nn1Cc1ccccc1 16%
COc1ccc(NS(=O)(=O)c2ccc(NC(=O)N3CCCC3)cc2)cc1 2.95%
CCOc1ccc(-c2nc3c(C#N)c[nH]n3c2NC2CCCC2)cc1 -5.33%
Cc1ccc(C2=Nc3ccccc3NC(c3ccncc3)=N2)cc1 1.11%
COc1ccc(Nc2cc(C)nc(-n3nc(C)cc3C)n2)cc1Cl 2.64%
CCc1ccc(N2CCn3c2nc2c3c(=O)n(Cc3ccc(F)cc3)c(=O)n2C)cc1 -6.67%
Cc1ccccc1-c1nc(CS(=O)(=O)CC(=O)NC(C)c2ccccc2)c(C)o1 (stereo unspecified) -22.6%
Cc1ccc(-n2c3c(c(=O)[nH]c2=O)C(NC(=O)c2ccccc2F)(C(F)(F)F)C(=O)N3)cc1C (stereo unspecified) -4.51%
COc1ccc(-c2cc(C(=O)Nc3c(Cl)cccc3Cl)no2)cc1OC -2.27%
COc1ccc(C(=O)Nc2ccc(-n3nncc3-c3ccc(OC)c(OC)c3)cc2)cc1 -3.85%
Cc1ccc(CNc2ccc(-c3nc(-c4ccco4)no3)cc2[N+](=O)[O-])cc1 1.16%
COc1cc(-c2noc(C3CC(=O)N(c4ccc5c(c4)OCCO5)C3)n2)cc(OC)c1OC (stereo unspecified) 7.89%
O=C(Nc1cc(F)ccc1F)C1COc2ccccc2C1 (stereo unspecified) 15.1%
CCc1ccc(NC(=O)c2cc3c(=O)n(Cc4cccs4)ccc3nc2C)cc1 -22%
COc1ccc(Cl)cc1NC(=O)CN(c1cc(C)cc(C)c1)S(=O)(=O)c1c(C)n[nH]c1C 56.7%
O=S(=O)(c1ccccc1)N1CCC(c2ccncc2)CC1 -24.3%
Cc1nn(CC(=O)NCCc2ccccc2Cl)c(=O)c2nn(-c3ccccc3)c(C)c12 8.15%
CC(=O)c1cc(-c2ccc(F)cc2)n(CCC(=O)Nc2nc3c(C)cccc3s2)c1C 11.2%
Cc1ccc2c(c1)c1c(c(=O)n(-c3ccccc3C)c(=O)n1CC(=O)NCCC1=CCCCC1)n2C 13.6%
COc1ccc(CNCc2c(C(=O)O)c(C)n(Cc3ccc(Cl)cc3)c2C)c(OC)c1 -15.5%
CCOc1ccc(CNC(=O)Cn2nc(C)c3nn(-c4ccc(Cl)cc4)c(C)c3c2=O)cc1OC 8.48%
CCC(C)NC(=O)c1sc2nc(C)c(C(=O)Nc3ccc(C)cc3C)c(-c3ccc(Cl)cc3)c2c1N (stereo unspecified) 2.7%
Cc1ccc(-n2ncc3c(NC4CCCCC4)ncnc32)cc1 -5.59%
COC(=O)c1cnn(-c2ccc(C(=O)Nc3ccc(C(C)=O)cc3)cc2)c1N 3.01%

outcome, inactive:
Oc1cccc(-c2nc(-c3cccs3)c(-c3cccs3)[nH]2)c1
Cc1ccccc1OCCSc1nnc(-c2ccc([N+](=O)[O-])cc2)o1
Cc1ccc(NS(=O)(=O)c2ccc(-c3cc(C)no3)cc2)c(C)c1
O=C(c1ccc2c(c1)N(Cc1cccc(Cl)c1)C(=O)c1ccccc1S2(=O)=O)N1CCN(Cc2ccccc2)CC1
CCc1cc(=O)oc2c(C)c3c(cc12)CN(CCc1ccccc1)CO3
COc1ccc(CNC(=O)Cn2c(=O)n3nc(-c4cccc(F)c4)nc3c3ccccc32)cc1OC
CCS(=O)(=O)N1CCc2cc(C(=O)Nc3cccc(NC(C)=O)c3)ccc21
O=C(Nc1c(C(=O)N2CCN(c3ccccc3F)CC2)oc2ccccc12)c1ccc(Br)o1
Oc1ccccc1-c1nc2ccc(Cl)cn2c1Nc1ccc2c(c1)OCCO2
Cn1c(=O)oc2cc(S(=O)(=O)N3CCCC(C(=O)N4CCN(c5ccc(F)cc5)CC4)C3)ccc21 (stereo unspecified)
Cc1ccc(-n2c(-c3cccc(C)c3)nc3c(cnn3-c3ccccc3)c2=O)cc1
CCc1nn(CC(=O)NCCCOC)c(=O)c2cc3occc3n12
Cc1nc2ccc(S(=O)(=O)CCC(=O)Nc3ccc(F)cc3C)cc2s1
CCc1ccc(NC(=O)C2CCN(c3cc(C)nc4c(-c5ccc(Cl)cc5)c(C)nn34)CC2)cc1
Cc1cc(OCCCSc2nc(-c3ccc(C(C)(C)C)cc3)nc3cc(=O)[nH]n23)ccc1Cl
CNS(=O)(=O)c1cn(CC(=O)Nc2ccc(C)cc2C)cc1S(=O)(=O)NC
COc1ccc(CCNC(=O)CCc2c(C)nc3c(c(C)nn3-c3ccc(C)cc3)c2C)c(OC)c1
CCc1ccccc1NC(=O)C1CCCN(S(=O)(=O)c2cccc3nsnc23)C1 (stereo unspecified)
COc1ccc2c(c1)c(=O)c(S(=O)(=O)c1ccc(C)c(C)c1)cn2CC(=O)Nc1ccccc1
CCN(CCCNC(=O)c1cc2c(=O)n(CC)c3ccccc3c2s1)c1cccc(C)c1
Cc1ccc(-c2cc(C(=O)O)n(Cc3ccccc3)n2)cc1
Cc1ccc(S(=O)(=O)c2nc(-c3ccccc3)oc2N2CCN(c3ccccc3)CC2)cc1
O=C1COc2cc(S(=O)(=O)CCC(=O)N3CCN(c4cccc(Cl)c4)CC3)c(Cl)cc2N1
O=C(CN1CCSc2ccccc21)N1CCN(c2cccc(Cl)c2)CC1

— PubChem BioAssay AID1963576 (National Center for Advancing Translational Sciences (NCATS), 2024)
